Our source for the Ki values is US7423058B2, “Inhibitors of hepatitis C virus NS3 protease” (Schering Corporation, priority 2004, dated 2008).

The structures appear in SMILES notation.

In this assay the target is Recombinant heterodimeric HCV NS3/NS4A protease (strain 1a) (Hepatitis C virus genotype 1a, UniProt P27958). Briefly: Spectrophotometric assay for HCV protease inhibitory activity (chromogenic ester substrates). Type of assay: biochemical. The conditions noted are these: Table 3, Esters; read-out: Ki* Range.
The Ki is a dissociation constant, usually derived from enzyme kinetics or from competition with a known ligand. For the compound `COC(=O)C1(NC(=O)N[C@H](C(=O)N2C[C@H]3[C@@H]([C@H]2C(=O)NC(CC2CC2)C(=O)C(N)=O)C3(Cl)Cl)C(C)(C)C)CCCC1` (some centres unmarked) [compound 4594], the Ki lay in the range of 0.076 to 0.25 µM.

As for `CC(C)OC(=O)[C@@H](NC(=O)N[C@H](C(=O)N1C[C@@H]2OC(C)(C)C[C@@H]2[C@H]1C(=O)NC(CC1CC1)C(=O)C(=O)NCCC(=O)OC(C)(C)C)C1CCCCC1)C(C)(C)C` (some centres unmarked) [compound 4595], the Ki was in the range of 0.076 to 0.25 µM.

Take `CCCCC(NC(=O)[C@@H]1[C@H]2CC(C)(C)O[C@H]2CN1C(=O)[C@@H](NC(=O)N[C@H](C(=O)OC(C)C)C(C)(C)C)C(C)(C)C)C(=O)C(=O)NCCC(=O)OC(C)(C)C` (some centres unmarked) [compound 4596]: the Ki fell in the range of 0.076 to 0.25 µM.

Take `C=CCNC(=O)C(=O)C(CCC)NC(=O)[C@@H]1CC2(CN1C(=O)[C@@H](NC(=O)N[C@H](C(=O)OC(C)(C)C)C(C)C)C1CCCCC1)SCCS2` (some centres unmarked) [compound 4597]: the Ki was in the range of 0.076 to 0.25 µM.

As to `CC(C)[C@H](NC(=O)NC1(C(=O)OCc2ccccc2)CCCCC1)C(=O)N1C[C@H]2[C@@H]([C@H]1C(=O)NC(CC1CC1)C(=O)C(N)=O)C2(C)C` (some centres unmarked) [compound 4599], the Ki was in the range of 0.076 to 0.25 µM.

As to `C=CCNC(=O)C(=O)C(CCC)NC(=O)[C@@H]1[C@@H]2[C@H](CN1C(=O)[C@@H](NC(=O)NC1(C(=O)OC(C)(C)C)CCCCC1)C(C)(C)C)C2(C)C` (some centres unmarked) [compound 4600], the Ki was 0.076 to 0.25 µM.

Consider `CC1(C)[C@@H]2[C@@H](C(=O)NC(CC3CC3)C(=O)C(N)=O)N(C(=O)[C@@H](NC(=O)N[C@H](C(=O)OCC3CC3)C3CCC3)C3(C(F)(F)F)CC3)C[C@@H]21` (some centres unmarked) [compound 4601], for which the Ki was in the range of 0.076 to 0.25 µM.

`CC(C)(C)[C@H](NC(=O)NC1(C(=O)OCc2ccccc2)CC1)C(=O)N1C[C@H]2[C@@H]([C@H]1C(=O)NC(CC1CC1)C(=O)C(N)=O)C2(C)C` (some centres unmarked) [compound 4602]: the Ki lay in the range of 0.076 to 0.25 µM.

As for `CC(C)(C)[C@H](NC(=O)N[C@@H](C(=O)OCc1ccccc1)C(C)(C)C)C(=O)N1C2CCC(C2)[C@H]1C(=O)NC(CC1CC1)C(=O)C(N)=O` (some centres unmarked) [compound 4603], the Ki lay within 0.076 to 0.25 µM.

`C=CCNC(=O)C(=O)C(CC1CCC1)NC(=O)[C@@H]1[C@@H]2[C@H](CN1C(=O)[C@@H](NC(=O)N[C@H](C(=O)OC(C)(C)C)C(C)(C)C)C(C)(C)C)C2(C)C` (some centres unmarked) [compound 4604]: the Ki is 0.076 to 0.25 µM.

`CC(C)(C)[C@H](NC(=O)NC1(C(=O)OCc2ccccc2)CCCCC1)C(=O)N1C[C@H]2[C@@H]([C@H]1C(=O)NC(CC1CC1)C(=O)C(N)=O)C2(Cl)Cl` (some centres unmarked) [compound 4605]: the Ki lay within 0.076 to 0.25 µM.

With `CC(OC(=O)[C@@H](NC(=O)N[C@H](C(=O)N1C[C@H]2[C@@H]([C@H]1C(=O)NC(CC1CC1)C(=O)C(N)=O)C2(Cl)Cl)C(C)(C)C)C(C)C)C1CC1` (some centres unmarked) [compound 4606], the Ki was 0.076 to 0.25 µM.

On to `CNC(=O)C(=O)C(CCC(F)(F)F)NC(=O)[C@@H]1[C@@H]2[C@H](CN1C(=O)[C@@H](NC(=O)N[C@H](C(=O)OC1CCC1)C(C)(C)C)C(C)(C)C)C2(C)C` (some centres unmarked) [compound 4607], for which the Ki lay in the range of 0.076 to 0.25 µM.

Consider `CC(C)(C)OC(=O)[C@@H](NC(=O)N[C@H](C(=O)N1C[C@H]2[C@@H]([C@H]1C(=O)NC(CC1CC1)C(=O)C(=O)NCc1ccccc1)C2(C)C)C(C)(C)C)C(C)(C)C` (some centres unmarked) [compound 4608], for which the Ki lay within 0.076 to 0.25 µM.

For the compound `C=CCNC(=O)C(=O)C(CC1CCC1)NC(=O)[C@@H]1[C@@H]2[C@H](CN1C(=O)[C@@H](NC(=O)N[C@H](C(=O)OC(C)(C)C)C(C)C)C(C)(C)C)C2(C)C` (some centres unmarked) [compound 4609], the inhibition constant Ki fell in the range of 0.076 to 0.25 µM.

Regarding `CC(C)[C@H](NC(=O)N[C@H](C(=O)N1C[C@H]2[C@@H]([C@H]1C(=O)NC(CC1CC1)C(=O)C(=O)NCc1ccccn1)C2(C)C)C(C)(C)C)C(=O)OC(C)(C)C` (some centres unmarked) [compound 4610], the Ki was in the range of 0.076 to 0.25 µM.

For `CCCCC(NC(=O)[C@@H]1[C@@H]2[C@H](CN1C(=O)[C@@H](NC(=O)N[C@H](C(=O)OC(C)(C)C)C(C)(C)C)C1CCCCC1)C2(C)C)C(=O)C(=O)NCC1CC1` (some centres unmarked) [compound 4612], the Ki was 0.076 to 0.25 µM.

As for `C=CCNC(=O)C(=O)C(CCCC)NC(=O)[C@@H]1[C@@H]2[C@H](CN1C(=O)[C@@H](NC(=O)N[C@H](C(=O)OC1Cc3ccccc3C1)C(C)C)C(C)(C)C)C2(C)C` (some centres unmarked) [compound 4614], the Ki lay in the range of 0.076 to 0.25 µM.

With `CC(C)[C@H](NC(=O)N[C@H](C(=O)N1C[C@H]2[C@@H]([C@H]1C(=O)NC(CC1CC1)C(=O)C(N)=O)C2(C)C)C1(C(F)(F)F)CC1)C(=O)OCc1ccccc1` (some centres unmarked) [compound 4615], the Ki lay within 0.076 to 0.25 µM.

Regarding `CNC(=O)C(=O)C(CCC(F)(F)F)NC(=O)[C@@H]1[C@@H]2[C@H](CN1C(=O)[C@@H](NC(=O)N[C@H](C(=O)OC1CCCC1)C(C)C)C(C)(C)C)C2(C)C` (some centres unmarked) [compound 4616], the Ki lay in the range of 0.076 to 0.25 µM.

Regarding `CC1(C)C[C@@H](C(=O)NC(CC2CC2)C(=O)C(N)=O)N(C(=O)[C@@H](NC(=O)N[C@H](C(=O)OC(C)(C)C)C(C)(C)C)C2CCCCC2)C1` (some centres unmarked) [compound 4617], the Ki is 0.076 to 0.25 µM.

Consider `CC(C)(C)OC(=O)[C@@H](NC(=O)N[C@H](C(=O)N1C[C@H]2[C@@H]([C@H]1C(=O)NC(CC1CC1)C(=O)C(=O)NC1CC1)C2(C)C)C(C)(C)C)C(C)(C)C` (some centres unmarked) [compound 4618], for which the Ki was 0.076 to 0.25 µM.

As to `C=CCNC(=O)C(=O)C(CC(C)C)NC(=O)[C@@H]1[C@@H]2[C@H](CN1C(=O)[C@@H](NC(=O)N[C@H](C(=O)OC(C)(C)C)C(C)(C)C)C(C)(C)C)C2(C)C` (some centres unmarked) [compound 4619], the Ki fell in the range of 0.076 to 0.25 µM.

In the case of `CC(C)(C)[C@H](NC(=O)N[C@H](C(=O)N1C[C@H]2[C@@H]([C@H]1C(=O)NC(CC1CC1)C(=O)C(N)=O)C2(C)C)C1(C(F)(F)F)CC1)C(=O)OCC1CC1` (some centres unmarked) [compound 4620], the inhibitory constant (Ki) was 0.076 to 0.25 µM.

With `CCCCNC(=O)C(=O)C(CCCC)NC(=O)[C@@H]1[C@@H]2[C@H](CN1C(=O)[C@@H](NC(=O)N[C@H](C(=O)OC(C)(C)C)C(C)(C)C)C1CCCCC1)C2(C)C` (some centres unmarked) [compound 4621], the Ki lay in the range of 0.076 to 0.25 µM.

With `CC(C)(C)C[C@H](NC(=O)N[C@H](C(=O)N1C[C@H]2[C@@H]([C@H]1C(=O)NC(CC1CC1)C(=O)C(N)=O)C2(C)C)C(C)(C)C)C(=O)OCc1ccccc1` (some centres unmarked) [compound 4622], the Ki lay in the range of 0.076 to 0.25 µM.

Turning to `CC(C)(C)C[C@H](NC(=O)N[C@H](C(=O)N1C[C@H]2[C@@H]([C@H]1C(=O)NC(CC1CCC1)C(=O)C(N)=O)C2(C)C)C(C)(C)C)C(=O)OCc1ccccc1` (some centres unmarked) [compound 4623], the Ki fell in the range of 0.076 to 0.25 µM.

Turning to `COC(=O)C1(NC(=O)N[C@H](C(=O)N2C[C@H]3[C@@H]([C@H]2C(=O)NC(CC2CCC2)C(=O)C(N)=O)C3(Cl)Cl)C(C)(C)C)CCCC1` (some centres unmarked) [compound 4624], the Ki lay in the range of 0.076 to 0.25 µM.

As to `CC(C)CC(NC(=O)N[C@H](C(=O)N1C[C@H]2[C@@H]([C@H]1C(=O)NC(CC1CC1)C(=O)C(N)=O)C2(C)C)C1CCCCC1)C(=O)OCc1ccccc1` (some centres unmarked) [compound 4625], the Ki lay in the range of 0.076 to 0.25 µM.

As for `CNC(=O)C(=O)C(CC1CC1)NC(=O)[C@@H]1[C@@H]2[C@H](CN1C(=O)[C@@H](NC(=O)NC1(C(=O)OCc3ccccc3)CCCCC1)C(C)(C)C)C2(C)C` (some centres unmarked) [compound 4627], the Ki lay within 0.076 to 0.25 µM.

`CC1(C)C[C@H]2[C@H](CN(C(=O)[C@@H](NC(=O)NC3(C(=O)OCc4ccccc4)CCCCC3)C3CCCCC3)[C@@H]2C(=O)NC(CC2CC2)C(=O)C(N)=O)O1` (some centres unmarked) [compound 4628]: the Ki lay within 0.076 to 0.25 µM.

As for `C#CCCNC(=O)C(=O)C(CCCC)NC(=O)[C@@H]1[C@@H]2[C@H](CN1C(=O)[C@@H](NC(=O)N[C@H](C(=O)OCC1CC1)C(C)C)C(C)(C)C)C2(C)C` (some centres unmarked) [compound 4629], the Ki was 0.076 to 0.25 µM.

`CC(C)(C)[C@H](NC(=O)N[C@H](C(=O)N1C[C@H]2[C@@H]([C@H]1C(=O)NC(CC1CCC1)C(=O)C(N)=O)C2(Cl)Cl)C(C)(C)C)C(=O)OCc1ccccc1` (some centres unmarked) [compound 4630]: the Ki is above 0.25 µM.

Regarding `CC1(C)[C@@H]2[C@@H](C(=O)NC(CC3CC3)C(=O)C(N)=O)N(C(=O)[C@@H](NC(=O)N[C@H](C(=O)OCc3ccccc3)C3CCCC3)C3(C(F)(F)F)CC3)C[C@@H]21` (some centres unmarked) [compound 4631], the Ki was above 0.25 µM.

Consider `CC(C)(C)[C@H](NC(=O)N[C@H](C(=O)N1C2CCC(C2)[C@H]1C(=O)NC(CC1CC1)C(=O)C(N)=O)C1CCCCC1)C(=O)OCc1ccccc1` (some centres unmarked) [compound 4632], for which the Ki is above 0.25 µM.

For `CC(C)CC(NC(=O)N[C@H](C(=O)N1C[C@H]2[C@@H]([C@H]1C(=O)NC(CC1CC1)C(=O)C(N)=O)C2(C)C)C(C)(C)C)C(=O)OCc1ccccc1` (some centres unmarked) [compound 4634], the Ki was above 0.25 µM.

In the case of `CCC(C)[C@H](NC(=O)N[C@H](C(=O)N1C[C@@H]2OC(C)(C)C[C@@H]2[C@H]1C(=O)NC(CC1CC1)C(=O)C(N)=O)C1CCCCC1)C(=O)OCc1ccccc1` (some centres unmarked) [compound 4635], the Ki was above 0.25 µM.

As to `CC(C)(C)OC(=O)[C@@H](NC(=O)N[C@H](C(=O)N1C[C@H]2[C@@H]([C@H]1C(=O)NC(CC1CC1)C(=O)C(=O)NCCc1ccccc1)C2(C)C)C(C)(C)C)C(C)(C)C` (some centres unmarked) [compound 4636], the Ki is above 0.25 µM.

Regarding `CC(C)(C)OC(=O)[C@@H](NC(=O)N[C@H](C(=O)N1C[C@@H]2OC(C)(C)C[C@@H]2[C@H]1C(=O)NC(CC1CC1)C(=O)C(N)=O)C1(C)CCCCC1)C(C)(C)C` (some centres unmarked) [compound 4637], the Ki is above 0.25 µM.

As for `C=CCNC(=O)C(=O)C(CCCC)NC(=O)[C@@H]1[C@@H]2[C@H](CN1C(=O)[C@@H](NC(=O)N[C@H](C(=O)OC(C)C)C(C)C)C1CCCCC1)C2(C)C` (some centres unmarked) [compound 4638], the Ki was above 0.25 µM.

For the compound `C=CCNC(=O)C(=O)C(CC(C)C)NC(=O)[C@@H]1[C@@H]2[C@H](CN1C(=O)[C@@H](NC(=O)N[C@H](C(=O)OC(C)(C)C)C(C)C)C(C)(C)C)C2(C)C` (some centres unmarked) [compound 4639], the Ki was above 0.25 µM.

`CC(C)[C@H](NC(=O)N[C@H](C(=O)N1C[C@H]2[C@@H]([C@H]1C(=O)NC(CC1CC1)C(=O)C(N)=O)C2(Cl)Cl)C(C)(C)C)C(=O)OC1Cc2ccccc2C1` (some centres unmarked) [compound 4640]: the Ki was above 0.25 µM.

In the case of `CC(C)(C)[C@H](NC(=O)NC1(C(=O)OCc2ccccc2)CCCC1)C(=O)N1C[C@H]2[C@@H]([C@H]1C(=O)NC(CC1CCC1)C(=O)C(N)=O)C2(C)C` (some centres unmarked) [compound 4641], the Ki is above 0.25 µM.

Consider `CC(C)(C)[C@H](NC(=O)NC1(C(=O)OCc2ccccc2)CCOCC1)C(=O)N1C[C@H]2[C@@H]([C@H]1C(=O)NC(CC1CC1)C(=O)C(N)=O)C2(C)C` (some centres unmarked) [compound 4642], for which the Ki was above 0.25 µM.
